Results are given in words; binding and its absence hold for the method and conditions named. Binding seen in cells or lysates may run through a third protein. Some results given as binding are weak or reduced against the parent protein; the word gives no strength. For some assays here: Tags and fused reporters may be left off the sequences shown.
T1: GFP-NKD2 WT (human) (UniProt Q969F2)
T1 sequence: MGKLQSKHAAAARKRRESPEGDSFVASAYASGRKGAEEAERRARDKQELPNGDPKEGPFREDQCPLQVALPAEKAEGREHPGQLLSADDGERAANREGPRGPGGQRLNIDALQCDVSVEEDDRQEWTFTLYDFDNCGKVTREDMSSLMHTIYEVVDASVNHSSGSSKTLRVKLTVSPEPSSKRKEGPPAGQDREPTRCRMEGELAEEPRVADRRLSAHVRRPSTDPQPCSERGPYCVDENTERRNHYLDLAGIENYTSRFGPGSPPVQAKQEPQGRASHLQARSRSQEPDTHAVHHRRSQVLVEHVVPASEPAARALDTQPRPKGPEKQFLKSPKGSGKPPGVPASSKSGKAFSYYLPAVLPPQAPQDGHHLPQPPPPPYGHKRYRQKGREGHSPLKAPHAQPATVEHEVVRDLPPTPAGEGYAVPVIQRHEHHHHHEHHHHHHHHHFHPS

Protein sequences, listed by entry. Tags and fused reporters are not part of them.
UniProt O15169: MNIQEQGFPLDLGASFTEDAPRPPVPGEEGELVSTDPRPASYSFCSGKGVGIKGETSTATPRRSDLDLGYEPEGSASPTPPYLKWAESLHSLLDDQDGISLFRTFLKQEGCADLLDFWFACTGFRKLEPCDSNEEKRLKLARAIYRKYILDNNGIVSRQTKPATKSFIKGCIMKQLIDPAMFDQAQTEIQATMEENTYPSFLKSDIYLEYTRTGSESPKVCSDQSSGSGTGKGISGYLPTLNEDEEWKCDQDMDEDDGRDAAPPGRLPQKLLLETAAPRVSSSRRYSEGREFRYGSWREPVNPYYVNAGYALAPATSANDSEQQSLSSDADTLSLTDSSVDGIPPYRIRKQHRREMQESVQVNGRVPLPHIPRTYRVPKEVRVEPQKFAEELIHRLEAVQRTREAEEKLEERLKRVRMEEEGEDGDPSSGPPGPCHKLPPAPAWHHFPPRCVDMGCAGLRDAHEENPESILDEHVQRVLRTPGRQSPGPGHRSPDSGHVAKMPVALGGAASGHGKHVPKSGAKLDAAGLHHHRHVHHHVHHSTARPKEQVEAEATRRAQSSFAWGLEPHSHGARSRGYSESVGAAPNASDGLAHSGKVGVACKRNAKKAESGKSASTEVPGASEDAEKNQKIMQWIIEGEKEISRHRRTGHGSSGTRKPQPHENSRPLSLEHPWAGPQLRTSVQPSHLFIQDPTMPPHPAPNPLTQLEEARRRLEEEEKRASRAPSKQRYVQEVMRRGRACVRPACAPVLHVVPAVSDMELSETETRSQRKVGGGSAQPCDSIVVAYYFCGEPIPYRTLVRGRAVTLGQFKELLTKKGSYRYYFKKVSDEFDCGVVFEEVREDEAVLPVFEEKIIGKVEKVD
UniProt O96017: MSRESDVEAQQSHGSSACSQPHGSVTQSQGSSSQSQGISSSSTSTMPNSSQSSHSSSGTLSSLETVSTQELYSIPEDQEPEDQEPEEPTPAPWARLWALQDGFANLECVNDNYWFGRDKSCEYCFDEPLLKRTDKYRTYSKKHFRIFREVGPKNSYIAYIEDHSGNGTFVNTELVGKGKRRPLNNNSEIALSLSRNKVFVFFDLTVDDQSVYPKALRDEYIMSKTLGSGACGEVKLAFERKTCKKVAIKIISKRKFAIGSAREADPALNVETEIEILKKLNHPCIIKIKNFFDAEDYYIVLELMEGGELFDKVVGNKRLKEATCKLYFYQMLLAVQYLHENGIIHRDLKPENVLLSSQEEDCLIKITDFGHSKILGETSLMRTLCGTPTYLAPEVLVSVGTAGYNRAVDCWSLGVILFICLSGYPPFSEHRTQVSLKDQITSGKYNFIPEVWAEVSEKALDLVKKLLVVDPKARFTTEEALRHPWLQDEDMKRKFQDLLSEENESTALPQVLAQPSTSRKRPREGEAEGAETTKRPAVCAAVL
UniProt Q13185: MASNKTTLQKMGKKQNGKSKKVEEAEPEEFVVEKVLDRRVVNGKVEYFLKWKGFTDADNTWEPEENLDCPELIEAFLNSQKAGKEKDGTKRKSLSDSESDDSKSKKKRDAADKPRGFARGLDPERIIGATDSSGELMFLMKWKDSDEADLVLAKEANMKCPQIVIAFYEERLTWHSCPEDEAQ
UniProt Q9UPY3: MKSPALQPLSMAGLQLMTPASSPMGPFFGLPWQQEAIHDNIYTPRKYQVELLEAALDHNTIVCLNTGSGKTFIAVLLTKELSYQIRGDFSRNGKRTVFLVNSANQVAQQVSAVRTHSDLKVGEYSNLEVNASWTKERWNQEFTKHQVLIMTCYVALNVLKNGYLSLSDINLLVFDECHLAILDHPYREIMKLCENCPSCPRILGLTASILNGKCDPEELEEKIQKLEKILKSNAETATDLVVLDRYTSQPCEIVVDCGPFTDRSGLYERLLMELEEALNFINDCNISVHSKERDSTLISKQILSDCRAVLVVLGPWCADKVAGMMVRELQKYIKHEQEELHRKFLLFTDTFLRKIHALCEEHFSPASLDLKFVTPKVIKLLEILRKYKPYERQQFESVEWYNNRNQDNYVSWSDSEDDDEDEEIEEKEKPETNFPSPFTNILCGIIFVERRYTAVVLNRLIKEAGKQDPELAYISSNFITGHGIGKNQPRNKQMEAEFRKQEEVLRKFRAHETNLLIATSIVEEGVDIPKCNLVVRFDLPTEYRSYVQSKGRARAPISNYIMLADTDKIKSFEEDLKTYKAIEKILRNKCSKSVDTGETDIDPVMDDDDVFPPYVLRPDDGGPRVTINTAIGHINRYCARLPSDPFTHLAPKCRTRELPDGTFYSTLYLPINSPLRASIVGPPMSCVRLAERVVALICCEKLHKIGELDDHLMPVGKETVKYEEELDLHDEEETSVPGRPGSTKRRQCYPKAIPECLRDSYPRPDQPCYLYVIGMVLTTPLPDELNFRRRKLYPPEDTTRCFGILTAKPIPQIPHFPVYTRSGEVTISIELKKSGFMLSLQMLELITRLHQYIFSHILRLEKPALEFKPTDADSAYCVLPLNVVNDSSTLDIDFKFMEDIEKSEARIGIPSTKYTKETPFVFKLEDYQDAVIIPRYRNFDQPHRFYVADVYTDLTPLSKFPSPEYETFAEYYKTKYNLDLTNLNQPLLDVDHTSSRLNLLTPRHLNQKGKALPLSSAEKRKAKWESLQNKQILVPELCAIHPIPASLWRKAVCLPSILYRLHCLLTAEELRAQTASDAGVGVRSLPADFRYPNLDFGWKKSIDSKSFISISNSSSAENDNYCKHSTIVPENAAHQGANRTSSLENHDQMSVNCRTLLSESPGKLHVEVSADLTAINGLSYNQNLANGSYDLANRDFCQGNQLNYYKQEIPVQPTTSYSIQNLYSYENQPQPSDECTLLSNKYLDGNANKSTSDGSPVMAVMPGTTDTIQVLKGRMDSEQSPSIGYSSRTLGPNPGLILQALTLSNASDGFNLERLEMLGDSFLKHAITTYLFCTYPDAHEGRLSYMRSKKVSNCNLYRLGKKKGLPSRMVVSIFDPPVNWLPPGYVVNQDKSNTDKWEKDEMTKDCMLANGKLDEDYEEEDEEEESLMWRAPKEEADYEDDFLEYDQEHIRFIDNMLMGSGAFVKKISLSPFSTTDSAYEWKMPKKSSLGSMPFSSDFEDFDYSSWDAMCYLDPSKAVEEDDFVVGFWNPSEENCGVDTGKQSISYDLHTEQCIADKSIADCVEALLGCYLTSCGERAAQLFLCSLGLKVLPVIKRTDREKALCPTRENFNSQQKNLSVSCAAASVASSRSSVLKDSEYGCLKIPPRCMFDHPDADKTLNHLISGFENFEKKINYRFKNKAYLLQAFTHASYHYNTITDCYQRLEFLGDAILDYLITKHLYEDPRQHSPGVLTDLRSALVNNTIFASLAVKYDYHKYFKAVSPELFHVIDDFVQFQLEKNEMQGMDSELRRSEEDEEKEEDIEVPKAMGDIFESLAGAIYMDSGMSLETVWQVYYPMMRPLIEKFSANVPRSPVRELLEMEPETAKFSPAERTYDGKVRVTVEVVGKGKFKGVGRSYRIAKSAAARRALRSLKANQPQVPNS


Columns and labels:
[1] = molecular target: tankyrase 1 (human (endogenous in HEK293T)) (UniProt O95271); assay: co-IP; endogenous proteins; HEK293T WT cell lysates (TNE buffer: 10 mM Tris pH 7.8, 1% Nonidet P-40, 0.15 M NaCl, 1 mM EDTA) immunoprecipitated with control or TNKS1 IgG (rabbit anti-tankyrase 465) and Protein G-Sepharose, immunoblot
[2] = molecular target: T1, GFP-NKD2 WT (human); assay: co-IP; HEK293T cells transfected with GFP, GFP-NKD2 WT or GFP-NKD2 Mut; lysates (TNE buffer) immunoprecipitated with GFP antibody, immunoblot for endogenous tankyrase
[3] = molecular target: tankyrase 1 (human (endogenous in HEK293T)) (UniProt O95271); assay: co-IP; HEK293T cells transfected with the tagged protein; lysates (TNE buffer) immunoprecipitated with anti-tankyrase IgG (endogenous tankyrase as bait) or control IgG, immunoblot

Molecule	binding [1]	other results
Axin1 (from UniProt O15169 1-862)	binds	
Chk2 (CHEK2) (from UniProt O96017 1-543) (enzyme)	no binding	
HP1ϒ (CBX3) (from UniProt Q13185 1-183)	no binding	
tankyrase 1 (from UniProt O95271 1-1327) (enzyme)		binding [2]: binds
HA-NKD1 (protein, UniProt Q969G9 1-470) MGKLHSKPAAVCKRRESPEGDSFAVSAAWARKGIEEWIGRQRCPGGVSGPRQLRLAGTIGRSTRELVGDVLRDTLSEEEEDDFRLEVALPPEKTDGLGSGDEKKMERVSEPCPGSKKQLKFEELQCDVSMEEDSRQEWTFTLYDFDNNGKVTREDITSLLHTIYEVVDSSVNHSPTSSKMLRVKLTVAPDGSQSKRSVLVNQADLQSARPRAETKPTEDLRSWEKKQRAPLRFQGDSRLEQSGCYHHCVDENIERRNHYLDLAGIENYTSQFGPGSPSVAQKSELPPRTSNPTRSRSHEPEAIHIPHRKPQGVDPASFHFLDTPIAKVSELQQRLRGTQDGSKHFVRSPKAQGKSVGVGHVARGARNKPPLGPAIPAVSPSAHLAASPALLPSLAPLGHKKHKHRAKESQQGCRGLQAPLASGGPVLGREHLRELPALVVYESQAGQPVQRHEHHHHHEHHHHYHHFYQT		binding [3]: binds
GFP-NKD2 WT (protein, UniProt Q969F2 1-451) MGKLQSKHAAAARKRRESPEGDSFVASAYASGRKGAEEAERRARDKQELPNGDPKEGPFREDQCPLQVALPAEKAEGREHPGQLLSADDGERAANREGPRGPGGQRLNIDALQCDVSVEEDDRQEWTFTLYDFDNCGKVTREDMSSLMHTIYEVVDASVNHSSGSSKTLRVKLTVSPEPSSKRKEGPPAGQDREPTRCRMEGELAEEPRVADRRLSAHVRRPSTDPQPCSERGPYCVDENTERRNHYLDLAGIENYTSRFGPGSPPVQAKQEPQGRASHLQARSRSQEPDTHAVHHRRSQVLVEHVVPASEPAARALDTQPRPKGPEKQFLKSPKGSGKPPGVPASSKSGKAFSYYLPAVLPPQAPQDGHHLPQPPPPPYGHKRYRQKGREGHSPLKAPHAQPATVEHEVVRDLPPTPAGEGYAVPVIQRHEHHHHHEHHHHHHHHHFHPS		binding [3]: binds

Second part, led by results:

binding [1]	Molecule	other results
binds	Dicer (from UniProt Q9UPY3 1-1922) (enzyme)	
binds	NKD2 (Naked Cuticle Homolog 2) (protein, UniProt Q969F2 1-451) MGKLQSKHAAAARKRRESPEGDSFVASAYASGRKGAEEAERRARDKQELPNGDPKEGPFREDQCPLQVALPAEKAEGREHPGQLLSADDGERAANREGPRGPGGQRLNIDALQCDVSVEEDDRQEWTFTLYDFDNCGKVTREDMSSLMHTIYEVVDASVNHSSGSSKTLRVKLTVSPEPSSKRKEGPPAGQDREPTRCRMEGELAEEPRVADRRLSAHVRRPSTDPQPCSERGPYCVDENTERRNHYLDLAGIENYTSRFGPGSPPVQAKQEPQGRASHLQARSRSQEPDTHAVHHRRSQVLVEHVVPASEPAARALDTQPRPKGPEKQFLKSPKGSGKPPGVPASSKSGKAFSYYLPAVLPPQAPQDGHHLPQPPPPPYGHKRYRQKGREGHSPLKAPHAQPATVEHEVVRDLPPTPAGEGYAVPVIQRHEHHHHHEHHHHHHHHHFHPS	

Reference: PMC5738441
